± gives the standard deviation of the averaged measurements. The full ranking holds about 33,000 sequences; the median of “E-score (dimensionless, -0.5 to 0.5)” is about -0.046, and the highest 2% start at about 0.36. The list shows a part of the results.
system: T1, SpTbr T-box DNA-binding domain (GST fusion); test: PBM E-score of 8-mer (E-score (dimensionless, -0.5 to 0.5)); Tbr is Tbrain of the sea star Patiria miniata (Pm) or the sea urchin Strongylocentrotus purpuratus (Sp); higher = stronger binding preference; most listed sequences are background and not binding sites; details: the construct has about 5 more residues each side
T1 sequence: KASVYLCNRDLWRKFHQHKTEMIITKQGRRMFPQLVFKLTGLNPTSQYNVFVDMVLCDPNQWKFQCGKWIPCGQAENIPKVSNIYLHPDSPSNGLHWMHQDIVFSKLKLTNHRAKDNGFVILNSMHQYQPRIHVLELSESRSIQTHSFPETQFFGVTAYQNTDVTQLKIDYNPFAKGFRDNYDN
Method in brief: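 Universal Agilent oligonucleotide arrays, made double-stranded by primer extension, were incubated with 200 nM GST-fused Tbr T-box DNA-binding domain in PBS (pH 7.5). The protein was expressed in BL21 E. coli at 20 °C and purified by glutathione affinity chromatography. After scanning and quantification, the Universal PBM Analysis Suite assigned an enrichment E-score to each ungapped 8-mer, averaged over duplicate arrays.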

Sequence | PBM E-score of 8-mer
ATTGATCG | -0.0161 ± 0.025
ATGGCAGA | -0.0355 ± 0.0081
CACGTACG | 0.146 ± 0.013
AGACGGTC | -0.0976 ± 0.022
TGAGAGAA | 0.0644 ± 0.036
CCCTCTAA | -0.0863 ± 0.034
CAACTCGC | 0.3 ± 0.024
ATAGCGAA | -0.00655 ± 0.0054
GTCACAGA | 0.0552 ± 0.0087
CGTCCGTA | -0.0855 ± 0.026
ACCTAGAT | 0.0538 ± 0.0072
CTTGTCCA | 0.0281 ± 0.03
CAACAATC | 0.135 ± 0.0045
CTTATTTA | -0.292 ± 0.038
TAGGCCGA | -0.112 ± 0.007
CAACATGC | 0.0294 ± 0.025
CTGTTTTA | -0.0491 ± 0.06
CGAGTGGA | 0.115 ± 0.013
AAAAGGTC | -0.00656 ± 0.018
GCACCGGA | 0.0891 ± 0.066
CCAATACC | -0.127 ± 0.0083
ATCCAAAC | -0.242 ± 0.016
CGGCGCGC | 0.194 ± 0.026
AACCAGCC | -0.167 ± 0.057
AGATTCAC | 0.141 ± 0.025

Sequence | PBM E-score of 8-mer
CAAAAAAA | -0.1537 ± 0.00074
CATCAGCG | 0.103 ± 0.002
TATATGGA | -0.197 ± 0.005
ACGTGTTC | 0.1884 ± 0.00041
TACGCTAA | 0.136 ± 0.044
AGTTCCAC | -0.146 ± 0.019
AACCCCTC | 0.101 ± 0.03
CCGTAGAC | -0.175 ± 0.014
ACCTTCCT | 0.0956 ± 0.015
CAATAACG | 0.0614 ± 0.048
CCAAGTGG | 0.0467 ± 0.03
TATATTCA | 0.0222 ± 0.047
GTATTGCA | -0.123 ± 0.032
CCCGATAA | 0.0927 ± 0.11
TCTGTGAA | 0.329 ± 0.017
CAGTTATA | -0.0338 ± 0.029
TAGTACCA | 0.000295 ± 0.0026
CGCTCGGA | -0.206 ± 0.05
AGTCGACG | 0.143 ± 0.039
ATTAACTC | 0.0428 ± 0.0027
GCCGTGAA | 0.354 ± 0.018
TGGCGCAA | 0.221 ± 0.016
AGAGCACC | -0.0887 ± 0.0029
GGTGTCTA | 0.292 ± 0.0045
AGGGTAGC | 0.0431 ± 0.0041

Sequence | PBM E-score of 8-mer
GGGTGAAA | -0.0551 ± 0.015
AGATTAAG | -0.176 ± 0.015
CATGCGTC | -0.125 ± 0.021
ATATCTCG | 0.0274 ± 0.018
AGCCGAGC | -0.0557 ± 0.018
GAGCGAAC | 0.105 ± 0.0055
CGGTATGA | -0.134 ± 0.014
GAGCGTCA | 0.182 ± 0.019
TCAATACA | -0.067 ± 0.06
AATGAAAG | 0.12 ± 0.059
AAGAGTCA | 0.017 ± 0.07
AGCGAGTG | 0.162 ± 0.0084
GTGTGCTA | 0.268 ± 0.025
ATAACACC | 0.457 ± 0.0069
CGTACGGA | -0.197 ± 0.043
ACTATACC | -0.0642 ± 0.071
CCTAGAGG | -0.104 ± 0.084
AAGTTACT | -0.127 ± 0.0051
GTTGACCA | 0.142 ± 0.036
ATAAGCAG | 0.0253 ± 0.034
ACCCGGGC | 0.111 ± 0.064
GCACGTCC | 0.155 ± 0.0022
ATCCTCGC | 0.207 ± 0.025
CGCGCGCA | 0.247 ± 0.044
TGTTCTAA | -0.191 ± 0.042

Sequence | PBM E-score of 8-mer
AACGGGAC | -0.122 ± 0.0074
CACCCCGA | 0.19 ± 0.078
CTAGTACC | 0.0514 ± 0.022
GTAGGATA | -0.181 ± 0.059
ACGAGAAG | -0.0261 ± 0.057
AATCCACG | -0.0908 ± 0.062
ATGAAGTC | -0.0788 ± 0.023
TAAGCATA | -0.289 ± 0.033
AATATAAC | 0.159 ± 0.031
AAATGGTT | 0.0673 ± 0.072
CGCCCGAC | 0.226 ± 0.012
CAGTCCAA | -0.108 ± 0.083
ACACGAGA | 0.145 ± 0.015
ATGGGCCA | -0.215 ± 0.08
AGACAGCA | -0.0426 ± 0.034
CATACTCG | 0.105 ± 0.03
ACCGAAAG | -0.193 ± 0.063
AAGTGTTA | 0.451 ± 0.00073
TACTACAA | -0.195 ± 0.015
AGCGGACA | -0.145 ± 0.043
ACATAAAC | 0.0411 ± 0.055
AATAAACC | -0.276 ± 0.034
ATTAACGC | 0.22 ± 0.015
TCGCCAGA | 0.0255 ± 0.017
CTACTCGA | -0.111 ± 0.065

Sequence | PBM E-score of 8-mer
TCACCGAA | 0.0505 ± 0.0053
AATTAGCA | 0.176 ± 0.0027
ACGTGATA | 0.118 ± 0.065
AAAAAAGA | -0.101 ± 0.057
CCCACAGA | -0.122 ± 0.054
GTGGTGGA | 0.0977 ± 0.035
ATCAGATA | -0.0339 ± 0.043
CGGATAGA | -0.1767 ± 0.0013
AGACTAGG | -0.128 ± 0.17
ATCTTAGG | -0.171 ± 0.024
AACCTCGT | 0.0688 ± 0.084
GGTACCTA | -0.209 ± 0.053
CGATTAGA | -0.0265 ± 0.03
CGACTGAA | -0.00792 ± 0.0065
CTGTACTC | -0.143 ± 0.029
ACCCCCCA | -0.116 ± 0.039
CGCTCCGA | -0.0649 ± 0.052
ACAATGGA | -0.165 ± 0.0037
ACGCTTCC | -0.0414 ± 0.046
GAAAGATA | -0.249 ± 0.031
GGTGGCCA | 0.032 ± 0.039
AATCCGAC | -0.061 ± 0.0046
CGTACTAA | -0.246 ± 0.053
AGTGGGCG | 0.12 ± 0.052
CAAGCGTG | 0.213 ± 0.018

Sequence | PBM E-score of 8-mer
TCTATACA | -0.0907 ± 0.061
GACTAAAC | -0.193 ± 0.029
CCGTCCCA | -0.129 ± 0.0072
ATGATAAT | -0.0559 ± 0.068
ATGCTCGA | -0.162 ± 0.011
GGCCTGGA | -0.38 ± 0.01
CACAAGTC | 0.166 ± 0.039
ACGGATAC | -0.141 ± 0.024
CTTTGACA | 0.174 ± 0.035
CACCAGCC | 0.0355 ± 0.0032
CTTCGCAA | 0.341 ± 0.029
GGGCCATA | -0.153 ± 0.085
TATAGCGA | 0.0409 ± 0.011
AAACATGA | -0.0353 ± 0.018
TCTCTTAA | -0.284 ± 0.033
ACCGGTAG | -0.036 ± 0.041
GATGGGTA | -0.118 ± 0.033
AAAGTGGC | 0.205 ± 0.025
GCTCATAA | -0.0895 ± 0.047
ATCAGGTC | -0.171 ± 0.075
AATAATCG | 0.0135 ± 0.016
AGTGTCCC | 0.196 ± 0.038
ATCTTCCA | -0.111 ± 0.0036
GCGACTAA | 0.159 ± 0.035
CGGTTGTC | 0.143 ± 0.029

Sequence | PBM E-score of 8-mer
GCCTGTAA | 0.0682 ± 0.055
ATATCTAC | -0.212 ± 0.02
AGCTCGAC | 0.17 ± 0.012
CCCAGGCC | -0.228 ± 0.045
ATTACCTA | 0.00159 ± 0.028
AGTTATAG | -0.135 ± 0.032
ACGTTTGA | 0.106 ± 0.044
GCCAGAAC | -0.137 ± 0.047
CTTGGCAC | 0.354 ± 0.022
CGGGTAGC | 0.0184 ± 0.037
ATATAGCC | -0.196 ± 0.061
CTTGGCCA | -0.143 ± 0.012
AGCTTTAC | -0.0306 ± 0.0074
AGGAAGAA | -0.0826 ± 0.038
GAAAGAAC | -0.155 ± 0.055
ACGGGGAC | -0.12 ± 0.097
CGTTGACA | 0.414 ± 0.0098
GCCCAGCA | -0.0687 ± 0.0064
AGTGAGAG | 0.3 ± 0.0092
CAGAGACG | -0.143 ± 0.044
AGATAACC | -0.165 ± 0.044
ACTACCAA | -0.0551 ± 0.038
